Assay results from PubChem BioAssay AID686979 (National Center for Advancing Translational Sciences (NCATS), 2013).
Hit rate of the full screen: of about 420,000 compounds, about 50,000 (12%) were called active. The inconclusive results got no clear call from the source; some entries with a clear call stand among them for comparison. Calls follow the shape of the dose curve; as a rule, active = well fitted inhibition curve with a large enough effect; inconclusive = small, poorly fitted or top-dose-only effect; inactive = flat fitted curve, though single readings scatter. No potency is given beside an inconclusive call; the fits are too rough.

test: qHTS for Inhibitors of human tyrosyl-DNA phosphodiesterase 1 (TDP1): qHTS in cells in presence of CPT; settings: chicken DT40 Tdp1-/-;hTDP1 cells + 20 nM CPT, ATP luminescence, 48 h; series mostly up to 46.2 µM; also: nearly all actives have a fitted effect of over 55% in size
Procedure, shortened: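 Cell growth measured by CellTiter-Glo luminescence after a minimum 48 h, 37 C compound exposure with 20 nM CPT in Tdp1-knockout DT40 cells stably expressing hTDP1, seeded 400/well; qHTS titration format.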
Potency is read from the fitted curve at half-maximal effect; tags tell the direction and shape of the fitted curve.

SMILES | Potency
Cc1cc(C=O)c(C)n1-c1ccc(N2CCCCC2)c([N+](=O)[O-])c1 | active: 8.2 µM
O=C(Cn1nnc(-c2cccs2)n1)NNC(=O)c1ccccc1Cl | inactive
COc1ccccc1CN(C)C(=O)c1cc2ccccc2o1 | inconclusive [inhibitor, partial curve]
Cc1ccc(S(=O)(=O)NCC(=O)NNC(=O)c2ccc(Br)cc2)cc1C | inactive
Nc1ccc(Oc2ccc([N+](=O)[O-])cc2[N+](=O)[O-])cc1 | active: 18.4 µM
Cc1nn(-c2ccc(Cl)cc2)c(Cl)c1/C=C(\C#N)C(N)=O | inconclusive [inhibitor, single point]
CCc1nc2c(OCc3c(C)noc3C)cccn2c1N(C)C(=O)C(C)C | inconclusive [inhibitor, single point]
CN1CC[n+]2cnc3ccccc3c21 | inactive
Cc1nn(Cc2ccccc2Cl)c(C)c1C(=O)N(C)CC(=O)Nc1cccc(F)c1 | inconclusive [inhibitor, single point]
CC(=O)c1cc(C#N)c(SCC(=O)C(C)(C)C)nc1C | active: 2.82 µM
Clc1ccccc1CSc1nncn1NC/C=C/c1ccccc1 | inconclusive [inhibitor, single point]
O=C(NC1CCCCC1)C(C1CC1)N1CCc2ccccc2C1 (stereo not drawn) | inactive
COc1ccccc1-c1sc2cc3c(cc2c1-c1ccc(OCCN2CCCCC2)cc1)OCO3 | active: 16.4 µM
CCC(C)CCN1C(Nc2ccccc2)=NC[C@@H]1Cc1ccccc1 (stereo partly drawn) | active: 20.6 µM
COc1cc2ccccc2cc1C(=O)Nc1ccccc1Cl | inactive
O=S1(=O)CC(N2CCN(CCO)CC2)CN1Cc1cn(Cc2cccc(Cl)c2)nn1 (stereo not drawn) | inactive
COc1ccc2[nH]cc(CCNc3ncncc3-c3cccc(C#N)c3)c2c1 | active: 0.0046 µM
O=C(NCCCN1CCN(c2ccccc2)CC1)c1ccc2nc(CCc3ccccc3)oc2c1 | active: 3.66 µM
Cc1ccc(CNC(=O)c2ccc3c(c2)NC(=O)CS3)cc1 | inconclusive [inhibitor, single point]
Cn1c(=O)oc2cc(S(=O)(=O)N3CCCC(C(=O)N4CCN(c5ccc(F)cc5)CC4)C3)ccc21 (stereo not drawn) | active: 7.31 µM
COc1ccc(NC(=O)C2CCCN(c3c4c(nc5ncnn35)CCC4)C2)cc1OC (stereo not drawn) | inconclusive [inhibitor, partial curve]
Cn1c(=O)n(C)c2cc(NC(=O)c3ccccc3)ccc21 | inactive
Cc1ccnc(N(C(=O)c2cccs2)C(=O)c2cccs2)c1 | inconclusive [inhibitor, single point]
